# Laboratory results reported in US12116397B2, “IL-IR-I binding polypeptide” (Swedish Orphan Biovitrum AB (publ), priority 2017, dated 2024).
# Target: T1, hIL-1R-I-Fc (Homo sapiens, UniProt P14778)
# T1 construct: purchased Creative BioMart IL1 RI-771H
# Assay: EC50 analysis of Z variants by ELISA target titration
# Assay type: binding
# Details: periplasmic Z-ABD; hIL-1R-I-Fc 100 to 0.01 nM; first matured library (Example 4)
# Procedure: (§1) A selection of IL-1R-I binding Z variants was subjected to an analysis of response against a dilution series of hIL-1R-1-Fc using ELISA as described above. The target protein hIL-1R-1-Fc was diluted stepwise 1:10 from 100 to 0.01 nM. As a background control, the Z variants were assayed with no target protein added. Obtained data was analyzed using GraphPad Prism 5 and non-linear regression, and the EC50 values (the half maximal effective concentration) were calculated.
# as §1, with “calculated. A periplasmic extract with Z12967 (SEQ ID NO:9) was analyzed in parallel for signal comparison.” for “calculated.”
# as §1, with “binding” for “binding Z variants”, “20” for “100”, “0.002” for “0.01”, “calculated. Periplasmic extracts with Z12967, Z16065 and Z16218 (corresponding to SEQ ID:9, 268 and 414, respectively) were analyzed in parallel for signal comparison. As negative control, a periplasmic extract of ABD001 was used.” for “calculated.”
# T1 sequence (P14778 with tags, fused parts or gaps limits assumed): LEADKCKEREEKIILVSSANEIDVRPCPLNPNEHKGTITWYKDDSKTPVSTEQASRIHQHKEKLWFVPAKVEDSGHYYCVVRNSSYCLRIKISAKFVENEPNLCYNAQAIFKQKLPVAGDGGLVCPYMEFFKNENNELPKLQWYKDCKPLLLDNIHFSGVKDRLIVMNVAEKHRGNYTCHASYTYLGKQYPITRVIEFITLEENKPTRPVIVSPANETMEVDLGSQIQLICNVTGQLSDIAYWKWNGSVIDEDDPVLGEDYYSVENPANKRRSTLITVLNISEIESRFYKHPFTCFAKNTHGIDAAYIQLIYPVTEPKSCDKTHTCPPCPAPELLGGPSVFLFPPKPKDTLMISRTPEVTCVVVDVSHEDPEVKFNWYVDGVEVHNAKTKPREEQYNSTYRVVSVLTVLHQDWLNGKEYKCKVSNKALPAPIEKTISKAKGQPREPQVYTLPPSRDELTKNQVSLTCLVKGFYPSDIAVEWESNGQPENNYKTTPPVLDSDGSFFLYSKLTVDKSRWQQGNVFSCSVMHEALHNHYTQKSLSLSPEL
row,EC50 [nM],Substance
1,0.25,Z17255: IL-1R-I binding Z variant (VDAKYAKEVEQAYYEIYALPNLTRKQYTAFIRKLLDDPSQSSELLSEAKKLNDSQAPK; Engineered IL-1R-I binding polypeptide)
2,0.24,Z15923: IL-1R-I binding Z variant (VDAKYAKETYYAQMEIFTLPNLTRKQYTAFIRKLFDDPSQSSELLSEAKKLNDSQAPK; Engineered IL-1R-I binding polypeptide)
3,0.35,Z15813: IL-1R-I binding Z variant (VDAKYAKEVDEAYMEIYRLPNLTRKQYTAFIRKLLDDPSQSSELLSEAKKLNDSQAPK; Engineered IL-1R-I binding polypeptide)
4,0.25,Z15897: IL-1R-I binding Z variant (VDAKYAKETENAQMEIFALPNLTRKQYTAFIRKLLDDPSQSSELLSEAKKLNDSQAPK; Engineered IL-1R-I binding polypeptide)
5,0.27,Z16749: IL-1R-I binding Z variant (VDAKYAKEVEAAYYEIYGLPNLTRKQYTAFIRKLLDDPSQSSELLSEAKKLNDSQAPK; Engineered IL-1R-I binding polypeptide)
6,0.24,Z16771: IL-1R-I binding Z variant (VDAKYAKEVEVAYMEIFQLPNLTRKQYTAFIRKLLDDPSQSSELLSEAKKLNDSQAPK; Engineered IL-1R-I binding polypeptide)
7,0.36,Z16173: IL-1R-I binding Z variant (VDAKYAKEIEAAYAEIYQLPNLTRKQYTAFIRKLLDDPSQSSELLSEAKKLNDSQAPK; Engineered IL-1R-I binding polypeptide)
8,0.24,Z16041: IL-1R-I binding Z variant (VDAKYAKEIETAQMEIFALPNLTRKQYTAFIRKLFDDPSQSSELLSEAKKLNDSQAPK; Engineered IL-1R-I binding polypeptide)
9,0.3,Z16319: IL-1R-I binding Z variant (VDAKYAKEIEEAQMEIFSLPNLTRKQYTAFIRKLFDDPSQSSELLSEAKKLNDSQAPK; Engineered IL-1R-I binding polypeptide)
10,0.25,Z16051: IL-1R-I binding Z variant (VDAKYAKEVESAQMEIFALPNLTRKQYTAFIRKLLDDPSQSSELLSEAKKLNDSQAPK; Engineered IL-1R-I binding polypeptide)
11,0.27,Z17278: IL-1R-I binding Z variant (VDAKYAKEIERAYYEIYDLPNLTRKQYTAFIRKLLDDPSQSSELLSEAKKLNDSQAPK; Engineered IL-1R-I binding polypeptide)
12,0.45,Z16329: IL-1R-I binding Z variant (VDAKYAKEVEDAYFEIYKLPNLTRKQYTAFIRKLLDDPSQSSELLSEAKKLNDSQAPK; Engineered IL-1R-I binding polypeptide)
13,0.23,Z16121: IL-1R-I binding Z variant (VDAKYAKEVEDAYFEIYNLPNLTRKQYTAFIRKLLDDPSQSSELLSEAKKLNDSQAPK; Engineered IL-1R-I binding polypeptide)
14,0.28,Z16302: IL-1R-I binding Z variant (VDAKYAKEVETAYFEIYNLPNLTRKQYTAFIRKLLDDPSQSSELLSEAKKLNDSQAPK; Engineered IL-1R-I binding polypeptide)
15,0.48,Z15978: IL-1R-I binding Z variant (VDAKYAKEVEAAQMEIFNLPNLTRKQYTAFIRKLLDDPSQSSELLSEAKKLNDSQAPK; Engineered IL-1R-I binding polypeptide)
16,0.24,Z16678: IL-1R-I binding Z variant (VDAKYAKEVEVAYFEIYALPNLTRKQYTAFIRKLLDDPSQSSELLSEAKKLNDSQAPK; Engineered IL-1R-I binding polypeptide)
17,0.24,Z16092: IL-1R-I binding Z variant (VDAKYAKEIEQAQMEIYRLPNLTRKQYTAFIRKLLDDPSQSSELLSEAKKLNDSQAPK; Engineered IL-1R-I binding polypeptide)
18,0.22,Z16305: IL-1R-I binding Z variant (VDAKYAKEVESAYFEIYSLPNLTRKQYTAFIRKLLDDPSQSSELLSEAKKLNDSQAPK; Engineered IL-1R-I binding polypeptide)
19,0.25,Z15997: IL-1R-I binding Z variant (VDAKYAKEIEEAQMEIFQLPNLTRKQYTAFIRKLLDDPSQSSELLSEAKKLNDSQAPK; Engineered IL-1R-I binding polypeptide)

row,EC50 [nM],Substance
1,0.54,Z16234: IL-1R-I binding Z variant (VDAKYAKEVEDAYYEIYSLPNLTRKQYTAFIRKLLDDPSQSSELLSEAKKLNDSQAPK; Engineered IL-1R-I binding polypeptide)
2,0.23,Z16050: IL-1R-I binding Z variant (VDAKYAKEVEAAQMEIFNLPNLTRRQYTAFIRKLLDDPSQSSELLSEAKKLNDSQAPK; Engineered IL-1R-I binding polypeptide)
3,0.27,Z16688: IL-1R-I binding Z variant (VDAKYAKEVKDAQFEIFALPNLTRKQYTAFIRKLFDDPSQSSELLSEAKKLNDSQAPK; Engineered IL-1R-I binding polypeptide)
4,0.25,Z15949: IL-1R-I binding Z variant (VDAKYAKETETAQMEIFALPNLTRKQYTAFIRKLLDDPSQSSELLSEAKKLNDSQAPK; Engineered IL-1R-I binding polypeptide)
5,0.25,Z16004: IL-1R-I binding Z variant (VDAKYAKEVEVAQMEIFSLPNLTRKQYTAFIRKLLDDPSQSSELLSEAKKLNDSQAPK; Engineered IL-1R-I binding polypeptide)
6,0.3,Z17270: IL-1R-I binding Z variant (VDAKYAKETEEAYFEIYRLPNLTRKQYTAFIRKLLDDPSQSSELLSEAKKLNDSQAPK; Engineered IL-1R-I binding polypeptide)
7,0.23,Z15960: IL-1R-I binding Z variant (VDAKYAKETEAAQMEIFALPNLTRKQYTAFIRKLLDDPSQSSELLSEAKKLNDSQAPK; Engineered IL-1R-I binding polypeptide)
8,0.28,Z16141: IL-1R-I binding Z variant (VDAKYAKEVVQAYDEIYGLPNLTRKQYTAFIRKLLDDPSQSSELLSEAKKLNDSQAPK; Engineered IL-1R-I binding polypeptide)
9,0.24,Z16089: IL-1R-I binding Z variant (VDAKYAKEIESAYYEIFALPNLTRKQYTAFIRKLLDDPSQSSELLSEAKKLNDSQAPK; Engineered IL-1R-I binding polypeptide)
10,0.27,Z16162: IL-1R-I binding Z variant (VDAKYAKEAESAYWEIYHLPNLTRKQYTAFIRKLLDDPSQSSELLSEAKKLNDSQAPK; Engineered IL-1R-I binding polypeptide)
11,0.24,Z16000: IL-1R-I binding Z variant (VDAKYAKEAYRAQMEIFALPNLTRKQYTAFIRKLLDDPSQSSELLSEAKKLNDSQAPK; Engineered IL-1R-I binding polypeptide)
12,0.25,Z16048: IL-1R-I binding Z variant (VDAKYAKEIEEAQMEIYYLPNLTRKQYTAFIRKLFDDPSQSSELLSEAKKLNDSQAPK; Engineered IL-1R-I binding polypeptide)
13,0.24,Z17297: IL-1R-I binding Z variant (VDAKYAKEAYIAQMEIFGLPNLTRKQYTAFIRKLLDDPSQSSELLSEAKKLNDSQAPK; Engineered IL-1R-I binding polypeptide)
14,0.28,Z16102: IL-1R-I binding Z variant (VDAKYAKEVETAQMEIYQLPNLTRKQYTAFIRKLFDDPSQSSELLSEAKKLNDSQAPK; Engineered IL-1R-I binding polypeptide)
15,0.23,Z16008: IL-1R-I binding Z variant (VDAKYAKEVEVAQMEIFNLPNLTRRQYTAFIRKLLDDPSQSSELLSEAKKLNDSQAPK; Engineered IL-1R-I binding polypeptide)
16,0.26,Z15886: IL-1R-I binding Z variant (VDAKYAKEVERAQMEIFALPNLTRKQYTAFIRKLLDDPSQSSELLSEAKKLNDSQAPK; Engineered IL-1R-I binding polypeptide)
17,0.27,Z17269: IL-1R-I binding Z variant (VDAKYAKEVEEAYQEIFHLPNLTRKQYTAFIRKLLDDPSQSSELLSEAKKLNDSQAPK; Engineered IL-1R-I binding polypeptide)
18,0.23,Z16058: IL-1R-I binding Z variant (VDAKYAKEVEEAQMEIFKLPNLTRKQYTAFIRKLLDDPSQSSELLSEAKKLNDSQAPK; Engineered IL-1R-I binding polypeptide)
19,0.24,Z16178: IL-1R-I binding Z variant (VDAKYAKEVEEAQMEIFFLPNLTRKQYTAFIIKLFDDPSQSSELLSEAKKLNDSQAPK; Engineered IL-1R-I binding polypeptide)

# Same assay, conditions: periplasmic Z-ABD; hIL-1R-I-Fc 100 to 0.01 nM; primary selection (Example 1)
row,EC50 [nM],Substance
1,2.2,Z12891: IL-1R-I binding Z variant (VDAKYAKEQSQAYHEIFKLPNLTRRQYTAFIMKLLDDPSQSSELLSEAKKLNDSQAPK; Engineered IL-1R-I binding polypeptide)
